Some of the results follow. At the low end of the ranking the order means little. Measured with an extract: partners may take part in the binding.

We go through 73 sequences from publication PMC10726135.

This test addresses T1, HNF4alpha2 (COS-7 nuclear extract) (UniProt P41235).
T1 sequence: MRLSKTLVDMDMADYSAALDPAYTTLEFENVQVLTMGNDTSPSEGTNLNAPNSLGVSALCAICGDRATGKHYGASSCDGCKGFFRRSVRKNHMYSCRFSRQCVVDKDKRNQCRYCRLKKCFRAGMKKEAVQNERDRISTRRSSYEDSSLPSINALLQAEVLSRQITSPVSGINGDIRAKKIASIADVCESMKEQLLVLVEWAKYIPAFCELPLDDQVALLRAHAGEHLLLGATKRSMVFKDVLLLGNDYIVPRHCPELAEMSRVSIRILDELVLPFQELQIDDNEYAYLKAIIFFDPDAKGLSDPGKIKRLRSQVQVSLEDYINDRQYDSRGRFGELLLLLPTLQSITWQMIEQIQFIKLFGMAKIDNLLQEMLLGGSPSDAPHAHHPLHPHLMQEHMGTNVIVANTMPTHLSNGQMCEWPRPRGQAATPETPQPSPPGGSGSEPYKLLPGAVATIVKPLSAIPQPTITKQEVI
Kind of test: protein-binding microarray. The following applies: COS-7 nuclear extract on double-stranded Agilent 4x180k PBM; binding buffer, salt, pH and temperature not given; high values mean tight binding; double strand, one strand shown; sequences stand for … in …GCCTAGGGAGATTAGAGTATCGGTCGA
For the sequence AGTCCCAATCCCCCATCTATTTACAAAAGA, the binding signal (log2 normalized intensity) amounted to 2.71.
On to TAATGAGTGCTATCCCTGGAGCCTTAGAAG, for which the binding signal (log2 normalized intensity) is -1.13.
Turning to AGGGAAGAGGCAAGGAAAGATAAATAGTGA, the binding signal (log2 normalized intensity) is -1.07.
For the sequence GGTATTCTTTCATCCCTCTCCCGCCTCTTG, the binding signal (log2 normalized intensity) turned out to be 1.54.
In the case of TGGTTTTGTAAATATAGGATCATGTTGTCT, the binding signal (log2 normalized intensity) is 2.09.
As to TGTTGGGGAATCAGTCCATAAATACACAAT, the binding signal (log2 normalized intensity) was -0.733.
The same measure for TCCACACCCCCCACTCTTCATATCTTCCCA: 3.07.
Turning to AAGGCCAAACACGGACAGGCAGGCCCAGAC, the binding signal (log2 normalized intensity) is -1.14.
On to AACGGTTCAAAGGACAGACTTTGGACCTGG, for which the binding signal (log2 normalized intensity) was found to be 7.15.
TACATTGCATATCAGCATGGCTGCAGAGAA: the binding signal (log2 normalized intensity) was -1.1.
As for GCGTGAGTTTGCTGTCTTGACTTGGTTCGG, the binding signal (log2 normalized intensity) was found to be 1.75.
The same measure for TGCCTCTCTGAACCTTCCTTAGAGAATGCT: -1.06.
Take CAGGAATGTTTCCTCTCCCAGCCCCTAGCC: the binding signal (log2 normalized intensity) turned out to be 3.
Take GCTAAGATGTAGCAAGAATGTAAATAGCTA: the binding signal (log2 normalized intensity) was -1.18.
In the case of CTGACCTTAGACCCTCAGGCTCCACCGGAT, the binding signal (log2 normalized intensity) is 1.26.
The same measure for ACTTTGAAGGCCCCAATTGCCAAGGGGGTG: -1.06; for AGGCAAACATAAACTCAGAGTCAAATCCCC: -0.631.
As to GACTTGAAGCCAGACTCTGCCATTTCCCAG, the binding signal (log2 normalized intensity) is -1.11.
As to CCAGGGACTTACTCAACTAGCTCCATGTGA, the binding signal (log2 normalized intensity) was -1.14.
Turning to AGAAGGGGTCAGGTAAGACAGCCTCCTGAA, the binding signal (log2 normalized intensity) is -1.07.
Take CCCCTAAAGGAGGCAAGGTCCAAACTTCTC: the binding signal (log2 normalized intensity) worked out at 1.7.
As to AAAAACATGGGTCTCTTCCTCAGTTTGTTC, the binding signal (log2 normalized intensity) was found to be 1.71.
Take GATGCATGATTGCTCTCTACTTGGTGGGAG: the binding signal (log2 normalized intensity) was 0.687.
Take CTCATTAATCATCCGTCACCCAGACAGACT: the binding signal (log2 normalized intensity) is -0.98.
As for GTAAGGGGAGGAGCTGAAACAGTCTGATTC, the binding signal (log2 normalized intensity) was -1.07.
The same measure for ATCCACCCATCCAAAGGTCAGCAATCTCAA: 2.93; for TCTCTCATGCTATGCTCTCTCTCCACCTGG: 0.574; for CATCACCTAACTTGTGGCTGGGTGATCTGG: 1.54.
With CTCTTTTTTCTTGTTGACTTTCCTATTGTC, the binding signal (log2 normalized intensity) came to 1.83.
Regarding AGAGAGAGAGAATGACCCTTGCTTGACCCA, the binding signal (log2 normalized intensity) came out at 3.12.
Take ATGGAGATGAGAAACTTATTGTGAACTGGA: the binding signal (log2 normalized intensity) was 0.573.
For the sequence ACCAGGGCAGGGAAAGGGGGTTTGCAACCT, the binding signal (log2 normalized intensity) is -1.13.
On to TCCTACCTTTCCCCTAAAGGAGGCAAGGTC, for which the binding signal (log2 normalized intensity) is 0.0723.
On to AGCCATTTATCAGGGTAATGAGTGCTATCC, for which the binding signal (log2 normalized intensity) is 2.13.
TGTGGAGGTCTACCAGGAATATTGCCCCCT: the binding signal (log2 normalized intensity) was determined as 5.08.
GTTGAGAACTGAGTTTAGAATTTGAACTAT: the binding signal (log2 normalized intensity) is 2.49.
Take TGGCATACTACAGAAATCTTTAAGTGCATT: the binding signal (log2 normalized intensity) amounted to 1.03.
Regarding TACCAAAGCCATGGCTCCAACCCGATTCTG, the binding signal (log2 normalized intensity) is -1.11.
The same measure for ACTACATTTCCAAGACCTCTTTGCGGATAG: -0.361.
As to GCAAGCTCCTGGTTGGGGCCTCCCTCCGTG, the binding signal (log2 normalized intensity) is -1.13.
The value for CCCCACCCTCCCACGCACTCGCCTGACTCC was 3.69.
The same measure for CTCCTAAAGGCAGCCCCTTATCAGGAGAGG: -1.2.
In the case of CTCTTGCTTCACAGCCCTCCAACTATGCTA, the binding signal (log2 normalized intensity) was 0.628.
Take TAGCCTTATCTCAGATGAGACTTTGGACTT: the binding signal (log2 normalized intensity) came out at 7.96.
Turning to TTTATAGGCTAGAATGGAAACCAATAACTG, the binding signal (log2 normalized intensity) is -1.23.
On to ATGACCTTTACCCCCATTTGGTAATGGGCC, for which the binding signal (log2 normalized intensity) amounted to 4.83.
As for ATTATCTGCTTTTATGACCTTTGACTGCAG, the binding signal (log2 normalized intensity) worked out at 6.64.
Turning to ATTGAAGTTACGTATTTTTGCCAAGGATAT, the binding signal (log2 normalized intensity) was 0.87.
On to GAGGTGGAAGTGGCAGATTAGAGACCTCTA, for which the binding signal (log2 normalized intensity) is -1.26.
Regarding AGGCCTATGGCGAAAAAGGAAATATCTTCC, the binding signal (log2 normalized intensity) is -0.871.
As for CCACTGACAGGAGGTATGCCAGGAATGCTG, the binding signal (log2 normalized intensity) is -1.14.
Regarding TTGTTTCATTGCACAGTTACTCCACAACTT, the binding signal (log2 normalized intensity) was -0.769.
With AAGCTCTGGAGTCCAAAGGTCAGCAAGCCT, the binding signal (log2 normalized intensity) came to 7.73.
As to AATGTATGGGCTATTTATGACGGTGTATGC, the binding signal (log2 normalized intensity) worked out at 1.13.
As for CTACATTCAAATCCTTGCTCTGTGGTTTAG, the binding signal (log2 normalized intensity) is 1.07.
The same measure for TCTGCAGTTCTGGGCCAAAGGTCATACCTG: 5.54; for TCAAAGCATTCCACATTCTCCACTGGGAAG: -1.12.
As for GACCTCCTGTCTCATCCTGTGACCAAGAAT, the binding signal (log2 normalized intensity) worked out at 0.365.
For CGACTTGCCTTGTGTACTCTATCCAGTAGA, the binding signal (log2 normalized intensity) stood at 0.982.
As for GGCCAGCGCCAGGCTGGGGGCAGAGTTCAC, the binding signal (log2 normalized intensity) was found to be 4.55.
With CTCAGTCATACCACATGGATGGATTCAGAT, the binding signal (log2 normalized intensity) worked out at 0.259.
The same measure for GGCCCAGGAAGCTCCAGCGGGGTTTGAATC: -1.12.
On to TCTTCCATCGGACTTTGATCTGCCACATAC, for which the binding signal (log2 normalized intensity) came to 5.79.
Consider GTGTTTGTCCTTTGTTGCAATGCTGGAACA, for which the binding signal (log2 normalized intensity) was found to be 1.25.
For TGCTGGAATGAGGGAGGCAGCCACCTAGGC, the binding signal (log2 normalized intensity) is -1.1.
The value for GCTAGCATTGCTCAGACAGGGCAAAGGTGC was 2.52; that for GCTTTGGACTTTGGGCTGTGTTTTGCCCCT was 4.7.
On to CTAAGAGCCGCAGAGCTAATGTTCAAATCC, for which the binding signal (log2 normalized intensity) is -0.775.
As to CTCAAAGGAGGTCAGAACTGTGGACTCGCT, the binding signal (log2 normalized intensity) is 0.551.
Regarding ATAAGACACATTCCATGCTTATCAGTGTAC, the binding signal (log2 normalized intensity) is 0.893.
As to CTTGTTTGTCAAGTTTGGTAAGCAGACCCC, the binding signal (log2 normalized intensity) worked out at 2.65.
On to ATTCCCTTTCTCCTCCCCTCCCCTCCCCCC, for which the binding signal (log2 normalized intensity) came to 6.91.
The value for GGGTCCACATTCCAGGAATATTCAGATATT was -0.976.
